This note sets out measurements from patent EP4566632A1, “MSLN ANTIBODY-DRUG CONJUGATE” (priority 2022, dated 2024).

In data set [1] the test system is HT29-huMSLN wild-type 2C3 cells. The data set is described as follows: Killing assay against MSLN-expressing cells, CellTiter Glo (Example 13). The class given is cell-based. The following applies: 6 days. Background: Cellular ATP, detected with luciferase, serves as a proxy for viable cell number.
The nature of data set [2]: Pharmacokinetic study in SD rats. The class given is in vivo. The following applies: intravenous 5 mg/kg.
Data set [3] in a line: Plasma stability, release of cytotoxic drug (LC-MS/MS). The following applies: human plasma, 37°C, within 28 days, 200 µg/mL. In kind it is in vitro ADME, humans.
Assay in data set [4]: as above
The following applies: cynomolgus monkey plasma, 37°C, within 28 days, 200 µg/mL. The class given is in vitro ADME, cynomolgus monkeys.

Assay in data set [5]: as above
The class given is in vitro ADME, SD rats. The following applies: SD rat plasma, 37°C, within 28 days, 200 µg/mL.

Assay in data set [6]: as above
In kind it is in vitro ADME, ICR mice. The following applies: ICR mouse plasma, 37°C, within 28 days, 200 µg/mL.

Data set [7] concerns HT29-huMSLN wild-type 2C3 cells. Briefly: Colon cancer HT29-huMSLN wild-type cell line model. The class given is in vivo, BALB/c nude mouse. The following applies: tail vein, twice a week x6, day 38 post-administration.
Data set [8] deals with COV644 cells. Briefly: Ovarian cancer COV644 model (Example 18). The following applies: tail vein, twice a week x5, day 38 post-administration. The class given is in vivo, BALB/c nude mouse.
The subject of data set [9] is OVCAR3 cells. Briefly: Ovarian cancer OVCAR3 model. In kind it is in vivo, BALB/c nude mouse. The following applies: tail vein, twice a week x5, day 23 post-administration.
Data set [10] relates to SKOV3 cells. The data set is described as follows: Ovarian cancer SKOV3 model. In kind it is in vivo, BALB/c nude mouse. The following applies: tail vein, twice a week x4, day 21 post-administration.
For data set [11], the system named is NCI-H226 cells. Briefly: Lung cancer NCI-H226 model. In kind it is in vivo, BALB/c Nude mouse. The following applies: tail vein, twice a week x5, day 28 post-administration. As for the experimental part: NCI-H226 cells were cultured in a RPMI-1640 medium containing 10% fetal bovine serum at 37°C in a 5% CO2 atmosphere. On the day of inoculation, NCI-H226 cells in the exponential growth phase were collected. Tumor cells were first resuspended in a mixture of PBS and Matrigel (1:1) and then subcutaneously inoculated. Each BALB/c Nude mouse was subcutaneously inoculated with 5 × 10^6 NCI-H226 tumor cells. When the average tumor volume in each group of mice reached 150 mm^3, the mice were divided into groups for dosing. 55 mice were divided into 11 groups, after which dosing began. The dosing schedule was twice a week for a total of five administrations via tail vein injection at doses of 1 mg/kg body weight or 5 mg/kg body weight. After dosing began, body weight and tumor volume were measured twice weekly. Tumor volume was calculated using the formula of: Tumor Volume (mm^3) = 0.5 × Tumor long diameter × Tumor short diameter^2. Observations concluded on day 28 post-administration, followed by the euthanasia of all mice. Data analysis was performed using the t-test.

Data set [12] relates to COV644. Briefly: Flow cytometry binding of antibodies and ADCs on COV644 cells (Example 23). The following applies: FACS.
The test system of data set [13] is COV644 cells. Briefly: Human ovarian cancer COV644 model (Example 26). The class given is in vivo, BALB/c Nude mouse. The following applies: tail vein, twice a week x5, day 21 post-administration.
The test system of data set [14] is CHOK1-huMSLN. The data set is described as follows: Flow cytometry binding on CHOK1 cells overexpressing human mesothelin. The following applies: FACS; for binding activity on the cells (in words): antibodies versus corresponding ADCs.
Data set [15] has as its system COV644 tumor cells. Briefly: pHAb dye endocytosis on COV644 tumor cells (Example 24). In kind it is cell-based. The following applies: 24 hours.
The test system of data set [16] is CHOK1-huMSLN. Briefly: Killing assay of B71 antibody-drug conjugates, CellTiter Glo (Example 25). In kind it is cell-based. The following applies: 6 days.

Positions count from the first letter of the chain named.

B1: PR300159-8-B81 (conjugate)
heavy: QVQLVESGGGVVQPGRSLRLSCAASGFTFSSDGMNWVRQAPGKGLEWVAVIWNDGSNKYYADSVKGRFTISRDNSKNTLYLQMNSLRAEDTAVYYCARDRGPLWPLDYWGQGTLVTVSS[human IgG1 constant region left out]
light: DIQMTQSPSTLSASVGDRVTITCRASQSISRWLAWYQQKPGKAPKLLIYKASSLESGVPSRFSGSGSGTEFTLTISNLQPDDFATFYCQQYASYSRTFGQGTKVEIKRTVAAPSVFIFPPSDEQLKSGTASVVCLLNNFYPREAKVQWKVDNALQSGNSQESVTEQDSKDSTYSLSSTLTLSKADYEKHKVYACEVTHQGLSSPVTKSFNRGEC
For the molecule B1, the “killing effect (in words)” value in data set [1] is listed as “significant killing effect”. The T1/2 in data set [2] (analyte Antibody-Drug Conjugate) stood at 193 h; in [2] (analyte Total Antibodies) it was 203 h. Moreover, in [2] (analyte Toxin Molecule A1), the AUClast was found to be 0.618 ng·h/mL. Also, the C0 in [2] (analyte Toxin Molecule A1) worked out at 0.117 ng/mL. This molecule yielded a Cmax in data set [2] (analyte Toxin Molecule A1) of 0.177 ng/mL. The molecule further had an MRTlast in data set [2] (analyte Toxin Molecule A1) of 1.80 h. The Tmax in data set [2] (analyte Toxin Molecule A1) worked out at 2 h. Also, the “percentage of cytotoxic drug released” value in data set [3] was “less than 0.5%”; in data set [4], “less than 0.5%”; in data set [5], “less than 1.5%”; in data set [6] it was “less than 2.5%”. Moreover, the average tumor volume in [7] (1 mg/kg) is listed as 34 mm^3; in [7] (5 mg/kg), “completely eliminated”; in data set [8] (1 mg/kg), 993 mm^3; in [8] (5 mg/kg) it was “completely eliminated”; in [9] (1 mg/kg), 35 mm^3; in data set [9] (5 mg/kg) it was 54 mm^3. Also, the average tumor volume in data set [10] (1.28 mg/kg) was 657 mm^3; in data set [10] (12.8 mg/kg), 122 mm^3; in data set [11] (1 mg/kg), 556 mm^3; in data set [11] (5 mg/kg), 164 mm^3. In addition, the results for the “tumor growth inhibition rate (TGI)” value in [7] (1 mg/kg), in data set [8] (1 mg/kg) and in data set [9] (1 mg/kg) were 97%, 31% and 98%, respectively. In addition, the “tumor growth inhibition rate (TGI, %)” value in data set [7] (5 mg/kg) is reported as 100%; in [8] (5 mg/kg) it was 100%; in data set [9] (5 mg/kg) it was 97%; in data set [10] (1.28 mg/kg) it was 67%; in data set [10] (12.8 mg/kg), 94%; in data set [11] (1 mg/kg), 64%. For the same molecule, in [11] (5 mg/kg), the “tumor growth inhibition rate (TGI, %)” value came to 89%.

B2: PR300159-B81: ADC conjugate of anti-MSLN antibody PR300159 with DL-01; DAR value 8.0 (conjugate)
heavy: B1 heavy
light: B1 light with A92N
In data set [12], B2 came in with an EC50 of 0.9 nM and a TOP of 2263900 MFI. In [13] (1 mg/kg), the average tumor volume is given as 1356.25 mm^3 and the “tumor growth inhibition rate (TGI, %)” value stood at 57.01%. In addition, in [13] (5 mg/kg), the average tumor volume entry is “complete tumor eradication” and the “tumor growth inhibition rate (TGI, %)” value stood at 100%.

B3: PR300159-B71 (conjugate)
heavy: B1 heavy
light: B1 light with A92N
Turning to B3, in data set [14], the EC50 was 0.47 nM, the TOP is reported as 3181863 MFI and the “binding activity on the cells (in words)” value is given as “comparable binding activity”. For the same molecule, in [15], the “endocytosis activity (in words)” value is given as “good endocytosis activity”. Besides, the “killing effects (in words)” value in data set [16] was “significant killing effects”. In data set [13] (1 mg/kg), the average tumor volume was 853.97 mm^3 and the “tumor growth inhibition rate (TGI, %)” value came out at 72.93%. Besides, in data set [13] (5 mg/kg), the average tumor volume result is “complete tumor eradication” and the “tumor growth inhibition rate (TGI, %)” value is reported as 100%.

B4: PR300186-B71 (conjugate)
heavy: QVQLQESGPGLVKPSETLSLTCTVSGGSINNYYWSWVRQPPGKGLEWIGYIFYSGSTNSNPSLKSRVIISVDTSKNQFSLKLSSVTAADTAVYYCAREVGRIAVAGWFFDLWGRGTLVTVSS[human IgG1 constant region left out]
light: EIVMTQSPATLSVSPGERATLSCRASQSVNSNLAWYQQKPGQAPRLLIYGASTRATGIPARFSGSGSGTEFTLTISSLQSEDFAVYYCQQYNNWPLTFGQGTRLEIKRTVAAPSVFIFPPSDEQLKSGTASVVCLLNNFYPREAKVQWKVDNALQSGNSQESVTEQDSKDSTYSLSSTLTLSKADYEKHKVYACEVTHQGLSSPVTKSFNRGEC
Turning to B4, in data set [14], the EC50 was 0.48 nM, the TOP amounted to 2474656 MFI and the “binding activity on the cells (in words)” value is given as “comparable binding activity”. Besides, the “endocytosis activity (in words)” value in data set [15] is recorded as “good endocytosis activity”. In data set [16], the “killing effects (in words)” value was “significant killing effects”.

B5: PR300186-B81: ADC conjugate of anti-MSLN antibody PR300186 with DL-01; DAR value 8.0 (conjugate)
heavy: B4 heavy
light: B4 light
B5: in data set [12], the concentration giving a half-maximal response (EC50) is > 100 nM and the TOP is listed as 669007 MFI. In data set [13] (1 mg/kg), the average tumor volume worked out at 1544.39 mm^3 and the “tumor growth inhibition rate (TGI, %)” value is listed as 51.05%. Besides, in data set [13] (5 mg/kg), the average tumor volume is on record as 500.16 mm^3 and the “tumor growth inhibition rate (TGI, %)” value worked out at 84.15%.

Broadly, the Cmax is the highest concentration seen after dosing. In general, Tmax refers to the time from dosing to the highest level. One may read the EC50 as the concentration that produces a half-maximal response.
